This is an account of results in paper PMC7819943, “Rice protein-binding microarrays: a tool to detect cis-acting elements near promoter regions in rice”.

The list shows a part of the results.

In the assay the target is T1, OsWOX13 (Oryza sativa, UniProt Q5QMM3 1-267).
T1 sequence: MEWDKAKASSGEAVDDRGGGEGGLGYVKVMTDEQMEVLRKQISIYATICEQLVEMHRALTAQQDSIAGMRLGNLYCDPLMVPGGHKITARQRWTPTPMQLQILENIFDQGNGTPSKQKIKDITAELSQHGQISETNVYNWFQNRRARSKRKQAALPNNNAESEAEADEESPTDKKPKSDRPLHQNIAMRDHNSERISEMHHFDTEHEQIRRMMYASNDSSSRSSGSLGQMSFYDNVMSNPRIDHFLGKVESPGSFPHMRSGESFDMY
Put plainly: protein-binding microarray (RPBM); PBS, 2% BSA, 51.3 ng/ul salmon testes DNA, 50 uM zinc acetate, 200 nM TF, 25 C, 1 h; high values mean tight binding. To be noted: protein: recombinant; tags: N-terminal polyhistidine and DsRed monomer fusion (pET32a); label: CyDye5-dUTP incorporated in the synthesized complementary strand; 3' TTTTT single-stranded linker to array surface; dsDNA, one strand shown. A digest of the protocol: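 In PBS with 2% BSA, salmon testes DNA and 50 µM zinc acetate, 200 nM protein was incubated on a custom Agilent array at 25 °C for 1 h and then washed off. The array had been made double-stranded by primer extension with Cy5-dUTP and blocked with 2% BSA. The proteins were transcription factors fused N-terminally to polyhistidine and DsRed, expressed in E. coli BL21-CodonPlus and purified on Ni–NTA. The binding signal is per-feature fluorescence intensity (arbitrary units) from an Axon 4000B scanner.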
For “GAACTGACAGACAGTCCCCTCCATTAGATGGAGGGAGAATCGGAGTCACCTAGTGCAG”, the binding signal was 7180 fluorescence intensity (a.u.).

For the sequence “GAACATGATAGCTATTCACTTATTTGCAGATTAAATTACGCGGAGTCACCTAGTGCAG”, the binding signal is 5650 fluorescence intensity (a.u.).

Regarding “TCCTACTTGATTGAGGGTAGATTGACCGCTAGGGAAAATTCGGAGTCACCTAGTGCAG”, the binding signal was 23700 fluorescence intensity (a.u.).

On to “CATATAATTGCTGATTCAGTGATTCGATTCCGTCGAGACTCGGAGTCACCTAGTGCAG”, for which the binding signal is 41600 fluorescence intensity (a.u.).

Consider “TCCGCATCCAACTTTGATTGTCCGTCTTATTTGAAATTTTCGGAGTCACCTAGTGCAG”, for which the binding signal is 4950 fluorescence intensity (a.u.).

Take “GTAACATACATAATCATCCTCTGTAATGGTGTGTAAGCTCCGGAGTCACCTAGTGCAG”: the binding signal is 5680 fluorescence intensity (a.u.).

With “CGACTGGATTGAAGCATTTTCTGCCTAGCTGTCTGTCTCTCGGAGTCACCTAGTGCAG”, the binding signal was 10100 fluorescence intensity (a.u.).

Regarding “CTTTACATTTTAATTTGGACCACCATATTCTATCCATCTCCGGAGTCACCTAGTGCAG”, the binding signal was 3500 fluorescence intensity (a.u.).

For the sequence “CCTTTCTTAGATTAGATTGATCCGTGACTATGCTTCTTCTCGGAGTCACCTAGTGCAG”, the binding signal is 33500 fluorescence intensity (a.u.).

With “GTTAATTTATTTCGGAATTGAACGAAGACTACTTAATCCACGGAGTCACCTAGTGCAG”, the binding signal is 30500 fluorescence intensity (a.u.).

As for “GAAACTTCGGGCAATCAAATTTACCTATTTCGTGTAGATTCGGAGTCACCTAGTGCAG”, the binding signal is 3490 fluorescence intensity (a.u.).

As to “GGAAGATGTAATTTTGTGTAAAGCACATGAAGTTAATTTGCGGAGTCACCTAGTGCAG”, the binding signal is 3970 fluorescence intensity (a.u.).

As for “TGGTTATTAGATTTACTATAGATGAATTATAGCTGGTAGTCGGAGTCACCTAGTGCAG”, the binding signal was 3330 fluorescence intensity (a.u.).

Consider “CTGATTGGCCATGAGTCCAGAGATAGCATTGAACACAGGACGGAGTCACCTAGTGCAG”, for which the binding signal was 32400 fluorescence intensity (a.u.).

For the sequence “AAATCACAATAAAATAATTAATAATTATGTGCTTATACTACGGAGTCACCTAGTGCAG”, the binding signal is 8700 fluorescence intensity (a.u.).

“CAGCTAAGATAATTAACTTAGCTAGTTGTCTCAGGATTATCGGAGTCACCTAGTGCAG”: the binding signal is 5810 fluorescence intensity (a.u.).

Take “AACTAATTACTACATTGTAACTTCCCATAACTTTGAACCGCGGAGTCACCTAGTGCAG”: the binding signal is 25900 fluorescence intensity (a.u.).

Regarding “TTGATTAGTCCTCCGTGGTTAATTAATTAGTGGAGAAACCCGGAGTCACCTAGTGCAG”, the binding signal is 20600 fluorescence intensity (a.u.).

Take “AAAATTACGTAATTATAATTTATTTTGTTATGAGTTGTTTCGGAGTCACCTAGTGCAG”: the binding signal was 31300 fluorescence intensity (a.u.).

Turning to “TTCAAATTTGTATTTTAGTTATTAGTACGCAAAGCTGCTCCGGAGTCACCTAGTGCAG”, the binding signal is 6590 fluorescence intensity (a.u.).

For the sequence “TTCCCTGATTTCTTCTGCGCTGACTCCTCCCTTACGATGCCGGAGTCACCTAGTGCAG”, the binding signal is 9800 fluorescence intensity (a.u.).

For the sequence “AATGATAATCATGTTCGATTTTAAAATCTCAATGACAATACGGAGTCACCTAGTGCAG”, the binding signal was 7100 fluorescence intensity (a.u.).

With “CCTTGTGATTGCTTTGCTCATCCCTCTTCGCTGCCCCACTCGGAGTCACCTAGTGCAG”, the binding signal was 38200 fluorescence intensity (a.u.).

On to “GGTAATTAAGTCACTAGCAAACTTTTGGCACAATTAAACTCGGAGTCACCTAGTGCAG”, for which the binding signal is 7350 fluorescence intensity (a.u.).

Regarding “ATTCAATCAATAATTGAATATATATTCATAATAAATTTGTCGGAGTCACCTAGTGCAG”, the binding signal is 24600 fluorescence intensity (a.u.).

With “TTTACACTATAATTATATTCACTTATACATTGTAATTACACGGAGTCACCTAGTGCAG”, the binding signal is 13800 fluorescence intensity (a.u.).

Take “GTTAATTACTTGAACCACGTAAGAAAACAAGGACACATGCCGGAGTCACCTAGTGCAG”: the binding signal was 10300 fluorescence intensity (a.u.).

Turning to “CCCATATCTTGATTGAGCTTGTTGAGATTCCCCATGCACACGGAGTCACCTAGTGCAG”, the binding signal is 32100 fluorescence intensity (a.u.).

As to “GAGCCCATTTAGATTGATATCATTTTCAACCATACTATTTCGGAGTCACCTAGTGCAG”, the binding signal was 19600 fluorescence intensity (a.u.).

With “ACTAATAGATCGTCTATCTTACGAACCACGGAGATCTCCACGGAGTCACCTAGTGCAG”, the binding signal was 8120 fluorescence intensity (a.u.).

With “TGCAGTTATTTATCATTCAATTAGTGAAGCATAAACTCATCGGAGTCACCTAGTGCAG”, the binding signal was 11300 fluorescence intensity (a.u.).

In the case of “GGCACGTAATTAACAGTTTTATAGTATAATGTCAAGTCGCCGGAGTCACCTAGTGCAG”, the binding signal was 29100 fluorescence intensity (a.u.).

Regarding “TATATATATATATATATATATATATATATATATAAAGAGACGGAGTCACCTAGTGCAG”, the binding signal is 35300 fluorescence intensity (a.u.).

As to “TCGTTGATGGATATACTATTGTGGTTGATACTAGTGTTATCGGAGTCACCTAGTGCAG”, the binding signal is 13500 fluorescence intensity (a.u.).

Turning to “GTAACTGACAGGGTGGCCCCACTGTCACAGTGTCCCTACCCGGAGTCACCTAGTGCAG”, the binding signal is 6090 fluorescence intensity (a.u.).

For the sequence “TGATCTATTAACGTGTGATTAATTAAGTATTACCTACCGTCGGAGTCACCTAGTGCAG”, the binding signal is 23500 fluorescence intensity (a.u.).

In the case of “GCTTATGATTATTATAATCTAAATTATTAGAAATAAGTTGCGGAGTCACCTAGTGCAG”, the binding signal is 27100 fluorescence intensity (a.u.).

Turning to “ATTCACTAATTTTCGGTTATTTAGGAAAGTGTAAACCCTGCGGAGTCACCTAGTGCAG”, the binding signal was 13800 fluorescence intensity (a.u.).

As for “AATCAATCTATATCGTTATAATCCGGACCGACCATGATCTCGGAGTCACCTAGTGCAG”, the binding signal is 18800 fluorescence intensity (a.u.).

Take “CCAAAATGTAATTTTAAAATTAAAATTTCAAAATCTATAACGGAGTCACCTAGTGCAG”: the binding signal is 13200 fluorescence intensity (a.u.).

As for “CCGTGCTGCATGATTGACCAAACAGACCATGTTGGTTTTGCGGAGTCACCTAGTGCAG”, the binding signal was 29000 fluorescence intensity (a.u.).

As to “TAGATAAATTTTACAATATATAACGGCTTTATTGAATGCTCGGAGTCACCTAGTGCAG”, the binding signal was 5100 fluorescence intensity (a.u.).
